Over roughly 110,000 compounds, “z-score” has its median near -0.1; the highest 2% begin near 2. The list shows a part of the results. Calls of active or inactive are those of the source.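 Rule for the calls: active = z-score in the third read window above 3 or below -3; inactive = the rest.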
target: Metabotropic glutamate receptor 8 (Rattus norvegicus) (UniProt P70579); assay: mGluR8 Gi/Go-coupled signaling modulation – cell-based, rat, thallium flux, HTS, primary screen (AID 488969); conditions: HEK293 rat mGluR8, GIRK (G protein-gated inwardly rectifying potassium channel) thallium flux, FluoZin2; at 10 µM; stronger effect = higher value; submaximal glutamate (EC20) added with thallium
Sequence of UniProt P70579 (P70579 whole entry, looked up): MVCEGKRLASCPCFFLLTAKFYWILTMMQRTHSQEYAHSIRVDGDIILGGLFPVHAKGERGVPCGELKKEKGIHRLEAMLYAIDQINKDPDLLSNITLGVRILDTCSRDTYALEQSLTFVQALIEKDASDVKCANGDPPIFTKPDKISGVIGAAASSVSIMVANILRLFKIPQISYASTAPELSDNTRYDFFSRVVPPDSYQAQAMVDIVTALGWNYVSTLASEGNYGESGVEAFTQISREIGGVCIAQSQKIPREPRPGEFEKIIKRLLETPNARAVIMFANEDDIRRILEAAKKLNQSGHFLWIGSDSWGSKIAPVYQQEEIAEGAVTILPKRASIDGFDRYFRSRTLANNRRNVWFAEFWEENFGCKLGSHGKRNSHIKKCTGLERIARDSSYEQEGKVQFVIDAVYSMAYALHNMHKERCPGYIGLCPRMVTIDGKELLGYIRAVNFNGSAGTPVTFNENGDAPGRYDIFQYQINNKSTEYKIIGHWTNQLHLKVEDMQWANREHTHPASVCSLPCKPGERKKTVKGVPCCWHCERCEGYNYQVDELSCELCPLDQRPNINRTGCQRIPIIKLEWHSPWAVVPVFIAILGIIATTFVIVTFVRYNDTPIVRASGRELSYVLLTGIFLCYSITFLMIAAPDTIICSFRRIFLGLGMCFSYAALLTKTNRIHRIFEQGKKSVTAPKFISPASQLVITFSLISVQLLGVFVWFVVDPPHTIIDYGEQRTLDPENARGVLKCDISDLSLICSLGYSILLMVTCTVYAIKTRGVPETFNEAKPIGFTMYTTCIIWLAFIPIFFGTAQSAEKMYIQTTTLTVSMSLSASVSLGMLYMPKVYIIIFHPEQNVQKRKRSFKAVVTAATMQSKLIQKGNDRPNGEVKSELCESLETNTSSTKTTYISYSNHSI

SMILES	z-score
Cc1cc(C(=O)N/N=C/c2cccnc2)c(C)o1	0.000639
COc1ccc(Oc2nc(Oc3ccc(OC)cc3)nc(Oc3ccc(OC)cc3)n2)cc1	0.397
Cc1cc(C)cc(NC(=O)N2CCCC2C(=O)Nc2ccc(-n3cnnn3)cc2)c1 (centres undefined)	-0.172
CCOC(=O)c1[nH]c2ccc(OC)cc2c1NC(=S)N1CCN(c2cccc(Cl)c2)CC1	0.523
CCC(=O)N1CCc2cc(S(=O)(=O)N3CCN(c4ccccn4)CC3)ccc21	-0.19
C=CCN1C(=O)/C(=C\c2cccs2)C(C(=O)OC)=C1C	-0.149
CN(C)C(CN1C(=O)C2CC=CCC2C1=O)c1cn(C)c2ccccc12 (centres undefined)	0.00474
CCOC(=O)c1c(C)c(C(=O)NCc2ccccn2)c(C)n1C	0.016
CCCC(=O)C1=C(N(C)c2ccccc2)CC(C)(C)C(C(=O)OC)C1=O (centres undefined)	-0.179
Cc1occc1-c1nnc(SCC(=O)Nc2nc(C(C)(C)C)cs2)o1	-0.256
Cc1ccccc1Cn1cccc1/C=C1/C(=N)N2C=CSC2=NC1=O	0.617
Cc1cc(/C=C(\C#N)C(=O)NCc2ccco2)c(C)[nH]1	-0.205
OCCOCCOCCn1c2ccccc2c2ccccc21	0.632
COc1ccc(-c2nsc3c(SCC(=O)Nc4cc(C)ccc4C)ncnc23)cc1	0.00156
COc1ccc(-n2nc(C(=O)NCC(=O)NCC3CCCO3)c3ccccc3c2=O)cc1Cl (centres undefined)	-0.286
CC(Sc1nc(NCc2ccccc2)nc(N(C)C)n1)C(=O)Nc1ccccc1 (centres undefined)	-0.344
COc1ccc(CN2C(=O)c3ccccc3C2=O)cc1C(=O)OC(C)C(=O)NC(N)=O (centres undefined)	-0.386
c1ccc(-c2csc(Nc3cccnc3)n2)nc1	0.0459
O=C(COC(=O)c1ccc2ccccc2c1)NCCCc1ccccc1	-0.194
CCn1c(CCNC(=O)c2ccc(OC)cc2)nnc1SCc1ccc(Cl)cc1Cl	-0.496
Cc1ccc(S(=O)(=O)c2c(C)nn(C(C)(C)C)c2OC(=O)c2cccs2)cc1	-0.303
CC1CCN(C(=S)c2ccc([N+](=O)[O-])cc2)CC1	-0.131
Cc1cc(C)n2nc(C(=O)Nc3ccc(S(=O)(=O)N4CCCCC4)cc3)nc2n1	0.26

SMILES	z-score
CC(C)(C)NC(=O)C(c1ccccc1)N(C(=O)C1CSC(=O)C1)c1ccccc1 (centres undefined)	-0.0608
O=[N+]([O-])c1ccccc1/C=N/NC1=NCCCCC1	-0.196
c1ccc2c(c1)CCCN2Cc1nnc2n1CCCCC2	-0.0623
O=C(Nc1nccs1)c1ccc(COc2ccc(F)cc2)o1	-0.0217
O=C(OCn1ncc(Br)c(Br)c1=O)c1ccccc1Cl	-1.85
Cc1nn(-c2ncc(C(F)(F)F)cc2Cl)c(=O)n1-c1ccccc1	-0.0331
COCCNc1nc(-c2cc3ccccc3o2)cs1	-0.198
CCOCCCNC(=O)C(c1ccc(C)cc1)N(Cc1ccc2c(c1)OCO2)C(=O)c1cnccn1 (centres undefined)	0.615
CCc1ccc(N2CC(C(=O)Nc3cccnc3)CC2=O)cc1 (centres undefined)	-0.423
CCCc1nnc(NC(=O)c2cc3ccccc3oc2=O)s1	0.243
Cc1nn(-c2cccc(Cl)c2)c2nc(C(F)(F)F)[nH]c(=O)c12	-0.292
CCC1CCCCN1c1ccc([N+](=O)[O-])cc1/C=N/NC(=O)Cn1c2ccccc2c(=O)c2ccccc21 (centres undefined)	-0.1
O=C(c1sc(N2CCOCC2)nc1-c1ccccc1)N1CCCCC1	0.0804
CCOC(=O)c1cc2c(s1)-c1ccccc1CC2	-0.0854
CC(OC(=O)c1ccncc1)C(=O)Nc1cccc(Cl)c1 (centres undefined)	-0.257
CCc1ccc(NC(=O)CN(c2cccc(C)c2)S(C)(=O)=O)cc1	-0.0133
O=C1C2=C(NC(=S)NC2c2ccc(Cl)cc2)NC(c2ccc(Cl)cc2)N1c1ccc(Cl)cc1 (centres undefined)	-0.109
CCC(=O)Nc1cc(Cl)ccc1N1CCN(C(=O)CC)CC1	-2.26
CC(=O)N=c1c(C#N)cc2c(=O)n3ccccc3nc2n1Cc1ccccc1	-0.381
Cc1ccccc1-n1c(SCc2cccc(F)c2)nc2[nH]ncc2c1=O	-0.858
CN(C)S(=O)(=O)c1ccc(C(=O)Nc2nc(-c3ccccc3)c(C(=O)c3ccccc3)s2)cc1	0.00341
Cc1ccccc1CSCC(Nc1ccc(C(=O)O)cc1[N+](=O)[O-])C(=O)O (centres undefined)	-0.0738
O=C(NCCC1=CCCCC1)c1ccc2c(=O)n3c(nc2c1)CCCCC3	-0.917

SMILES	z-score
Cc1ccc2[nH]c(=O)c(COC(=O)c3ccccn3)cc2c1	-0.486
O=C(CSCc1cnn(-c2ccccc2)c1-n1cccc1)NCC1CCCO1 (centres undefined)	0.0662
O=C(CN1CCCN(S(=O)(=O)c2ccc(Br)s2)CC1)Nc1ccc(Cl)cc1	-0.0129
COc1ccccc1NC(=O)c1nn(-c2ccc(F)c(F)c2)ccc1=O	0.117
c1ccc(-c2cc(N3CCCCC3)nc(-c3ccccc3)n2)cc1	-0.21
CC(=O)c1cc(-c2ccccc2)n(CC(=O)Nc2cc(C)cc(C)c2)c1C	-0.238
Cc1ccc(-c2nnn(CC(=O)N3CCC(C)CC3)n2)o1	-0.288
O=C(Nc1ccc(-c2cn3ccccc3n2)cc1)c1ccc(Cl)cc1	-0.529
COC(=O)c1nc(N)sc1-c1ccccc1	-0.0596
O=C(NCCSc1ccccc1)c1ccco1	-0.0112
CCCCn1c(=O)c2ccccc2c2ccccc2c1=O	0.196
CCOC(=O)C1=C(N)N(c2ccccc2)C(=O)C1	-0.483
CCOc1cc(S(=O)(=O)n2c(C)nc3ccccc32)ccc1F	0.607
Nc1nc2nc(SCC(=O)N3CCCc4ccccc43)[nH]c2c(=O)[nH]1	0.318
Cn1c(=O)c2c(SCC(=O)c3ccccc3)nc(C3CC3)nc2n(C)c1=O	-0.0681
Nc1nc(-c2ccccc2)nc2sc3c(c12)CCCC3	-0.278
O=C(c1ccncc1)N(Cc1ccco1)Cc1cc2ccccc2[nH]c1=O	-0.495
O=[N+]([O-])c1cc(Cl)ccc1Sc1cccc2cccnc12	0.0973
Cn1c(O)c(N=NC(=O)Cn2ccc(C(F)(F)F)n2)c2ccccc21	0.825
Cc1ccc(NC(=O)CN(C)CC(=O)Nc2ccc(N3CCOCC3)cc2)c([N+](=O)[O-])c1	-0.253
O=C(CN(Cc1cccs1)C(=O)c1csnn1)NC1CCCC1	-0.424
CS(=O)(=O)N(CC(=O)NCc1ccco1)c1ccc(Cl)c(C(F)(F)F)c1	active: 4.31
COc1ccc(-n2cnc3c(cnn3CCC#N)c2=N)cc1	1.18

Reference: PubChem BioAssay AID488969 (Vanderbilt High Throughput Screening Facility, 2010)
